Results taken from the supplement of paper PMC11417369.
The list shows a part of the results.

system: PF3D7_0420300 AP2 domain 1 (GST-tagged); assay: gcPBM binding intensity (ln(normalized median fluorescence intensity)); higher = stronger DNA binding
How it was run: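 Binding of GST-tagged P. falciparum DNA-binding domains, expressed in E. coli and used at about 25 μg on average, was carried out for 1 h in 1× PBS containing 1% milk, 0.2 mg/ml BSA, 0.5% salmon testes DNA and 0.03% Triton X-100. The target was an Agilent 4 × 180k array of primer-extended double-stranded 36-bp intergenic genomic probes plus negative controls, read with Alexa488 anti-GST antibody at 488 nm. Binding intensity is the highest Masliner-normalised natural-log median intensity across replicate spots of either probe orientation.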

Row | Sequence | gcPBM binding intensity (ln)
1 | ATATTGATTTGTGGCACACATATAATATATTCCTAT [CACACA_site3046] | 9.29
2 | TTTTATTTTTGTTGGTCCCTCATTTAAGTTAATAAA [TGCATGCA_negctrl_site465] | 9.37
3 | TGAATAATAAAAAATACACACACATATATATATATT [CACACA_site9146] | 9.82
4 | TATTTATATATTTGTTGTACGTATTTATATATTCTT [XGTACX_site3622] | 9.51
5 | TTATATTAATATTATATTTAAAAATAAAATATAAAT [TGCATGCA_negctrl_site79] | 8.77
6 | ATTTTTATATATATCTGTACTAAAAAAAAAAAAAAA [XGTACX_site5258] | 8.71
7 | AGAAGTAAAAAAATAGCACACACACTAATACCAACA [CACACA_site8354] | 9.98
8 | AAACAAAAAAGAAAAACAATGAGATAAAGAAGAGAA [CACACA_negctrl_site804] | 9.78
9 | AAAAGAAAAATATTCACACATATAAATAATATATAA [CACACA_site4201] | 9.19
10 | TTTAATTATTTATTTTGTACATATATTATATATATA [XGTACX_site5760] | 9.2
11 | AATTAAATTCGGTACTGTACATTTCAAAAATATACG [XGTACX_site48] | 9.09
12 | CTTAAATTTTACTGAAGTACAAAATCGGTTCAATGA [XGTACX_site3292] | 8.91
13 | GGGAAAAAAAAAAGCACACATACGTAAATATATAAC [CACACA_site226] | 9.74
14 | TATACATATTTTTTTTGTACATATATAATATATATA [XGTACX_site2399] | 9.13
15 | TTTAAAAAAAGCAGTACATGCAAAATAATAACAAGC [TGCATGCA_site392] | 9.76
16 | CAATTATATAATTGAAGTACTAGGAAAGATATATAT [XGTACX_site5459] | 9.44
17 | TAAAAAAATATTACATGTACATAAAATATATATATA [XGTACX_site4633] | 9.18
18 | ATATTATATATATACACACACACATGCATGCACCTA [CACACA_site106] | 10.2
19 | TTTTTTAAATATATGGTGCATAGAAAGATATTATAC [GTGCAC_site9984] | 9.16
20 | ATGTGTTAAAAATGCACACAAAAAAATATACATATA [CACACA_site295] | 9.47
21 | ACATGTGAACATTCAATGCACACGATGTAATTATAC [CACACA_site14] | 9.43
22 | TTAAAAAAAAAACACACACACATACCCATATATATA [CACACA_site5768] | 9.97

Row | Sequence | gcPBM binding intensity (ln)
23 | TATAAAAATATATATATATATATATATATAATATGT [TGCATGCA_negctrl_site85] | 9.04
24 | ATTTGTTCCTTGGGAGTTTACTTTTTTTTAATTTTA [CACACA_negctrl_site638] | 9.54
25 | TTCTTTTTAATTAATACACACACACCCATATATATA [CACACA_site8719] | 10
26 | AACAAAATTGAAGGAACACACATACATATTTATATA [CACACA_site6227] | 9.72
27 | AAAAAATTAGATTATGCACACACACTAATAAATAAT [CACACA_site8604] | 9.84
28 | CATATAAATACATGCACACAAAAATATCAATACATT [CACACA_site2392] | 9.72
29 | TTTATTTAAGAAAAATGTACAGGTTCATTTCATAAT [XGTACX_site27] | 8.8
30 | TTTTTTTTTTTTTTATGTACACATCTAAAAAAAAGG [XGTACX_site2067] | 8.5
31 | GCCCCCTAAAAAATTACACACGAAAAAAATGAATTT [CACACA_site9128] | 9.9
32 | GGTCTAACAACATGCGCACACACATGAATATTCATA [CACACA_site1539] | 9.78
33 | TAAGTATAAAAAAATAGTACAATTATGAAATATCGT [XGTACX_site2529] | 9.5
34 | TTTAACAAGTTAAACACACATACATATATACATATA [CACACA_site2536] | 9.4
35 | GTGTAGATATTGAAATGTACTCTCCATATAAAATAA [XGTACX_site4713] | 9.07
36 | AAAGAATTTGCATATACACACAAAAAAATATATACA [CACACA_site386] | 9.5
37 | TTACGATACTTTAGGTGTACACAAATATACATGAAT [XGTACX_site4322] | 9.33
38 | ATATATATATATATATGTACTTATTTATTTATATTA [XGTACX_site4646] | 9.21
39 | TTGCATTAATTTATGTGTACATATAAATTTTTATTT [XGTACX_site3060] | 9.07
40 | TATAAATATAAATATACACACATATATATATATATA [CACACA_site1678] | 9.17
41 | ATCAGTCGGCAGGACAGTACACAGTAGCCAGAAAAT [XGTACX_site2550] | 9.49
42 | CTTATAGGTCATTTCCTTGACCCCCTTTGTTGTACT [CACACA_negctrl_site551] | 9.19
43 | ATAAATACATATGTGTGTACACATTATATATATATA [XGTACX_site1486] | 9.46
44 | GAAAAATTAAAACCTACACACACATTTAAAAAAAAA [CACACA_site9005] | 9.9

Row | Sequence | gcPBM binding intensity (ln)
45 | ATATATATATAATCATCACACATGCAGCCCTGATGA [CACACA_site5500] | 9.28
46 | TATATATTACATACATGTACCCAAAAAAAAAAAAAA [XGTACX_site1168] | 9.08
47 | GAATGAATACGTTTTACACACTTGAATCTAATTTCA [CACACA_site6593] | 9.29
48 | ATTCTACTTTTATTTATTTATTTGTTTATATATATA [XGTACX_negctrl_site609] | 9.75
49 | TTTTTTATTCATGTAACACACATTTAATTATGAATT [CACACA_site2706] | 9.29
50 | TATACATACACATACACACATACACCCATACACATA [CACACA_site1746] | 9.93
51 | ATCCTAATATTGAACTGTACCTTATATGTTATTATA [XGTACX_site1014] | 9.46
52 | GGTTATATATTTTTTGCACACCAAAAAAGAGAATAT [CACACA_site2731] | 9.37
53 | ACGTGTATTTATTTAGTGCACTTTATATTTTTTCTT [GTGCAC_site9426] | 9.58
54 | TATATATATATATATACACACATATATACATATATA [CACACA_site4043] | 9.25
55 | TTATAAATAAAAAATACACACATATATTTATTTATA [CACACA_site6242] | 9.34
56 | ATAATATATGAAAGTGGTACACAAAGGAAAATAAAA [XGTACX_site333] | 9.52
57 | AATAATAAATCAAACTGTACATATATTTTCAATCTA [XGTACX_site3344] | 9.3
58 | TGTAGTCTGGAGAAAAGTACACAGTATCCGGTAACT [XGTACX_site4934] | 9.18
59 | TTTTTTTTTTTGTTCACACATATATATATATATATA [CACACA_site5376] | 9.36
60 | AATGTATATATATATATATATATATATATTTATTTA [CACACA_negctrl_site113] | 8.89
61 | AAGAAAATAGAAAATACACACAGCAAACAGAGGAAT [CACACA_site3785] | 9.97
62 | ATATATATATATTTATGTACATATATTTTTTTTTTT [XGTACX_site8558] | 9.25
63 | AATAAATAAATACATCTCAGTATATAAACAAACAAA [CACACA_negctrl_site1604] | 9.52
64 | ATGAAACATGTATATTGTACTCTGGATCAATTTAAT [XGTACX_site6413] | 9.07
65 | AAGCCTTAAAAGGAAAGTACGTATATATATATATAT [XGTACX_site8559] | 9.06
66 | ATATTTAATTAAAAGAGTACTTAAATAAAATAAATG [XGTACX_site2149] | 9.13

Row | Sequence | gcPBM binding intensity (ln)
67 | AAATTTATTATATATACATGCAATCATAAATAATGT [TGCATGCA_site539] | 9.17
68 | AATACATATAATACAACACACAAGTAATATAAACCT [CACACA_site3597] | 9.93
69 | GGATATAACAAACACACACACACATATATATATATT [CACACA_site4141] | 10.2
70 | TTTAAATGAAAAAAAGGTACACAATATTATTCTTAT [XGTACX_site8612] | 9.2
71 | AAAAAAAAAAAACACACACACACACTAGTATATAAA [CACACA_site4783] | 10.2
72 | AATACTTATTATGAAACACACACCAAAACTACATAA [CACACA_site270] | 9.76
73 | AAGAAAAAAAAAAATATATATACATATATATATATA [TGCATGCA_negctrl_site485] | 8.83
74 | AAAATAAAATAAAACACAAAAAAATAAAACAAAATA [CACACA_negctrl_site16] | 9.8
75 | AAATAAAATATATACATATATATATTATTTAGTAAT [XGTACX_negctrl_site375] | 9.15
76 | TATATATCCATGTGTACACACAAAAAAAAATAAAGT [CACACA_site7107] | 9.94
77 | AAATATGTTTATATATGTACTTATAATTCAAAATAT [XGTACX_site2167] | 9.09
78 | TCTATGCGTTTTAATAGTACATATAAAATTTATACA [XGTACX_site6986] | 9.09
79 | TAATTAACAAACTATAGTACACAAAATACTTCATAT [XGTACX_site6375] | 9.44
80 | ATATACACACATAAGTGTACTTATATTTCATATATA [XGTACX_site8646] | 9.44
81 | CCATGTCACAATTTTTCACACACAAAATTTATATAC [CACACA_site8628] | 9.72
82 | AAAAAGGATAAACACACACACACACCGATATATATA [CACACA_site8206] | 10.2
83 | TTATTTTTGTGTAAGGTGCTATATATAATGTTTTTA | 9.43
84 | AAATGTGATATAAGTACACACACATATGTATATATA [CACACA_site8539] | 9.6
85 | AACGAAATCATCAAGTGTACTAGTTTATTATTAATA [XGTACX_site6161] | 9.2
86 | TATGTATATTATATGACACACATTTATATATATATA [CACACA_site1167] | 9.32
87 | TTTTGTTGATTTATATCTGTAGGGTTTAATATAACA [XGTACX_negctrl_site174] | 9.13
88 | TTAACTATGAATACATGTACATGAAAATATTTCAAT [XGTACX_site1069] | 9.04
